Experimental data taken from patent US20240218079A1, “PLASMA KALLIKREIN ANTIBODIES AND USES THEREOF” (Astria Therapeutics, Inc., priority 2021, published 2024).

B1: MAb4: MAb3 VL and VH as full length human IgG1 kappa; heavy chain SEQ ID NO: 7, light chain SEQ ID NO: 8 (antibody)
heavy: QVQLVQSGAEVKKPGSSVKVSCKASGYAFSSYWMNWVRQAPGQGLEWIGQIYPGDDDTNYNAKFQGRVTITVDKSTTTAYMELSSLRSEDTAVYFCAGSLMVTTGAPFDYWGQGTTVTVSSASTKGPSVFPLAPSSKSTSGGTAALGCLVKDYFPEPVTVSWNSGALTSGVHTFPAVLQSSGLYSLSSVVTVPSSSLGTQTYICNVNHKPSNTKVDKRV[human IgG1 Fc cut from this listing]
light: DIQMTQSPSSLSASVGDRVTITCKASQDVGIAVAWYQQKPGKAPKFLIYYASHRGWGVPDRFSGSGSGTDFTLTISSLQPEDFATYFCQQYRSYPLTFGQGTKLEIKRTVAAPSVFIFPPSDEQLKSGTASVVCLLNNFYPREAKVQWKVDNALQSGNSQESVTEQDSKDSTYSLSSTLTLSKADYEKHKVYACEVTHQGLSSPVTKSFNRGEC
B2: MAb4-LS: MAb4 with M428L and N434S; heavy chain SEQ ID NO: 9, light chain SEQ ID NO: 8 (antibody)
heavy: QVQLVQSGAEVKKPGSSVKVSCKASGYAFSSYWMNWVRQAPGQGLEWIGQIYPGDDDTNYNAKFQGRVTITVDKSTTTAYMELSSLRSEDTAVYFCAGSLMVTTGAPFDYWGQGTTVTVSSASTKGPSVFPLAPSSKSTSGGTAALGCLVKDYFPEPVTVSWNSGALTSGVHTFPAVLQSSGLYSLSSVVTVPSSSLGTQTYICNVNHKPSNTKVDKRV[human IgG1 Fc with changes cut from this listing]
light: B1 light

Columns and labels:
[1] = Cynomolgus pharmacokinetic studies; assay type: in vivo, cynomolgus monkey; conditions: male cynomolgus, IV infusion 5 mg/kg
Description: These studies of these antibodies were conducted concurrently, but were independent studies rather than a head-to-head comparison. Cynomolgus monkeys, LM-naïve or naive, 3.0-4.0 kg, male, N=18, were purchased from Hainan Jingang Biotech Co. LTD. The antibodies were prepared in 20 mM Histidine, 150 mM NaCl, 0.01% Tween 80, pH 6.5. In these studies, all antibodies were administered to male cynomolgus monkeys (N=3) via IV infusion over 10 min at 5 mg/kg. Blood was collected from cephalic and saphenous veins into pre-cooled citrate acid tubes at each time point. […] Blood samples were put on wet ice and centrifuged at 4° C. to obtain plasma within 15 minutes of sample collection. Plasma samples were stored at approximately −70 C. Presence of each anti-plasma kallikrein antibody in the plasma samples was determined via ELISA using a plate coated with anti-human antibody as the capture agent and human IgG-heavy and light chain monkey-adsorbed antibody as the detection reagent (Southern Biotech, Cat #: 2049-01 and Bethyl, Cat #A80-319P). ELISA plates were read using a SpectraMax M2.

[2] = target: T1, plasma kallikrein (pkal) (Homo sapiens, UniProt P03952); experiment: HMWK cleavage functional assay (bradykinin release measured by ELISA); assay type: biochemical; conditions: for Hill slope: inhibition of HMWK cleavage by pkal
T1 construct: active human plasma kallikrein (pkal, Enzyme Research Labs, South Bend, IN); purchased Enzyme Research Labs
T1 sequence (P03952 20-390 limits assumed): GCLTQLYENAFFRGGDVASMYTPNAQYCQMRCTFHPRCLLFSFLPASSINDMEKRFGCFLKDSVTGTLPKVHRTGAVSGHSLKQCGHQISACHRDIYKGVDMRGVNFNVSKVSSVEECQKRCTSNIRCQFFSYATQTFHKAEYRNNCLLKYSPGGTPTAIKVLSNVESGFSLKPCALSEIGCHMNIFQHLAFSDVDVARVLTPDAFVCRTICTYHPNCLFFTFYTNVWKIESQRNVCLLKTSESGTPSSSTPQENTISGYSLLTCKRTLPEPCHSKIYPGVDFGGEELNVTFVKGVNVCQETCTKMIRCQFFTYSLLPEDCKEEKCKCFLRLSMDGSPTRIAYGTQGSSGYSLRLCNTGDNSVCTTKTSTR
T1 sequence (P03952 391-638 limits assumed): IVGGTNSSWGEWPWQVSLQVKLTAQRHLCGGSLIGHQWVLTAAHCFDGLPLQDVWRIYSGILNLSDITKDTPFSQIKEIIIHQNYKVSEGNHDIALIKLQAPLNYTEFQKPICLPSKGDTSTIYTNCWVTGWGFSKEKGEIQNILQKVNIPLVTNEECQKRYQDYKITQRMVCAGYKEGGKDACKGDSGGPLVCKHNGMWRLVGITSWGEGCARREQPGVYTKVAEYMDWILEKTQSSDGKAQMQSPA
Description: Specifically, the ability of each antibody to inhibit pkal cleavage of its natural substrate, High Molecular Weight Kininogen (HMWK) was observed. In these experiments 10 or 30 nM pkal was preincubated with inhibitory antibodies for 1 hr at RT, then 600 nM HMWK was added and incubated for 20 minutes and the reaction was quenched by adding 0.5 μM AEBSF. The concentration of bradykinin (BK) released from HMWK as catalyzed by pKal was measured using 1/100 dilution of the reaction product in a commercial ELISA kit (Enzo, Farmingdale, NY).
The HMWK assay parameters were physiologically relevant as the concentration of high molecular weight kininogen used is the concentration that circulates in humans and the concentration of plasma kallikrein used is in the range of what has been estimated in plasma from patients with hereditary angioedema (HAE) during an attack.
The IC90 values for the antibodies were also determined to provide an index of relative potency. In HAE, the therapeutically relevant level of inhibition to prevent HAE attacks is thought to be approximately 90% inhibition of plasma kallikrein. This corresponds to a measurement referred to as IC90, which is the concentration of an agent that results in 90% inhibitory effect.

[3] = test system: membrane proteome array; experiment: Membrane proteome array assay; assay type: binding; conditions: data not shown

Row | Molecule | CI (mL/day/kg) (Mean ± SD) [1] | T ½ (days) (Mean ± SD) [1] | Vss (mL/kg) (Mean ± SD) [1] | IC90 ([2]; HMWK functional assay, 10 or 30 nM pkal preincubated 1 hr RT, 600 nM HMWK 20 min, bradykinin by ELISA) | Hill slope [2] | off target binding [3] | terminal half-life [1]
1 | B1 | 4.85 ± 0.87 mL/day/kg | 10.9 ± 0.4 days | 72.2 ± 11.1 mL/kg | 30 nM | ~2 | No off target binding was observed | –
2 | B2 | 3.80 ± 0.13 mL/day/kg | 23.2 ± 3.5 days | 114.4 ± 9.6 mL/kg | – | ~2 | – | approximately 23 days
